# Laboratory results published in PubChem BioAssay AID588855 (National Center for Advancing Translational Sciences (NCATS), 2011).
# The whole screen tested about 410,000 compounds, of which about 5,000 (1.2%) were called active. The shares of active, inactive and inconclusive entries below differ from those in the screen. Calls follow the shape of the dose curve; as a rule, active = well fitted inhibition curve with a large enough effect; inconclusive = small, poorly fitted or top-dose-only effect; inactive = no such curve, though single readings can be large or run the other way. Potencies of inconclusive entries are doubtful fits and often do not repeat.
# Test: qHTS for Inhibitors of TGF-b; also: nearly all actives have a fitted effect of over 65% in size
# Details: HepG2 CAGA-GFP TGF-b/SMAD3 reporter, GFP fluorescence, 18 h, TGF-beta stimulated, 500 pg/mL final; series mostly up to 46.1 µM; activity, negative = inhibition: at the top concentration
# In short: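 Read-out: total well GFP (ex488/em500-530) summed from mean per-cell fluorescence. Cells: HEPG2 CAGA-GFP, 1% FBS DMEM, 18 h at 37 degrees C with 500 pg/mL final TGF-beta. Unstimulated wells served as the full-inhibition control; stimulated DMSO wells = 0%.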
# % is scaled to controls: 0 for no effect and ±100 for the full control effect; potency is read from the fitted curve at half-maximal effect; tags tell the direction and shape of the fitted curve.
Compound,Potency,"activity, negative = inhibition"
CCCCCc1cc(=O)oc2c(C(CCN3CCCC(C)C3)c3ccc(N(C)C)cc3)c(OC)cc(OC)c12 (stereo not drawn),"inconclusive: 35.5 µM [inhibitor, single point]",–
COc1ccc2nc(C)cc(N3CCN(c4ccccc4)CC3)c2c1,"inconclusive: 35.5 µM [inhibitor, single point]",–
Cc1onc(-c2ccccc2)c1-c1ccnc(N)n1,–,inactive: -9.57%
COc1ccc(CCNC(=O)CSc2nc3[nH]ncc3c(=O)[nH]2)cc1OC,–,inactive: -1.62%
Nc1c(C(=O)c2ccc(F)cc2)sc(Nc2ccccc2F)c1S(=O)(=O)c1ccc(Br)cc1,"inconclusive: 8.91 µM [inhibitor, partial curve, poor fit]",–
CCC(CC)COC(=O)C(C#N)c1nc2ccccc2nc1N1CCN(CC)CC1 (stereo not drawn),"inconclusive: 28.2 µM [inhibitor, single point]",–
CCc1cc2c3c(c1)C1(C(=O)N3C(C)(C)C=C2C)C(C#N)=C(N)Oc2[nH]c(=O)[nH]c(=O)c21 (stereo not drawn),"inconclusive: 35.5 µM [inhibitor, partial curve, poor fit]",–
Cc1ccccc1OCc1nc(-c2ccc(NC(=O)c3ccc4c(c3)OCO4)cc2)no1,"inconclusive: 17.8 µM [inhibitor, single point]",–
COC(=O)c1cccnc1-n1c(=O)c2cccnc2n(CC(=O)Nc2c(C)cc(C)cc2C)c1=O,"inconclusive: 35.5 µM [inhibitor, single point]",–
CCOC(=O)[C@H]1[C@H]2COc3cc(OC)ccc3[C@@H]2N2C(=O)CN(Cc3ccc(C)cc3)C(=O)[C@@]12C,–,inactive: -0.351%
Cc1ccc(NC(=O)CN2C(=O)COc3ccc(S(=O)(=O)N4CCCCC4)cc32)cc1N(C)C,"inconclusive: 4.47 µM [inhibitor, single point]",–
O=C(NNC(=O)c1ccccc1O)c1ccccc1O,"inconclusive: 3.16 µM [inhibitor, partial curve, poor fit]",–
COc1ccc(S(=O)(=O)Nc2cccc(S(=O)(=O)N(C)C)c2)cc1[N+](=O)[O-],–,inactive: 11.2%
Cc1ccc(NC(=S)NC(=O)c2c(-c3ccccc3Cl)noc2C)cc1,"inconclusive: 12.6 µM [inhibitor, single point]",–
COc1ccc(CN2CN(S(=O)(=O)c3cccs3)c3nc4ccccc4nc32)cc1,–,inactive: -3.91%
CCCCOc1ccc(CNC(=O)C2COc3ccc(OC)cc3C2)cc1 (stereo not drawn),–,inactive: 0.913%
COc1cccc(CNC(=O)Cc2ccc(-n3c(=O)[nH]c4ccccc4c3=O)cc2)c1,"inconclusive: 35.5 µM [inhibitor, single point]",–
O=[N+]([O-])c1cc(C(F)(F)F)ccc1NCCOc1ccccc1,"inconclusive: 35.5 µM [inhibitor, single point]",–
CC(C)NC(=O)C1(C)Cc2c(-c3ccc(C(N)=O)cc3)ccnc2O1 (stereo not drawn),–,inactive: 2.69%
COc1ccc(CN(Cc2ccco2)c2cnc(S(C)(=O)=O)nc2C(=O)Nc2ccc(F)cc2)cc1,–,inactive: 7.61%
COc1ccc(OC)c(-c2csc(-c3c(N)c(C(=O)c4ccccc4)n4ccccc34)n2)c1,–,inactive: 9.43%
Cc1cccc(NS(=O)(=O)c2cccs2)c1,"inconclusive: 35.5 µM [inhibitor, single point]",–

Compound,Potency,"activity, negative = inhibition"
O=C(NCc1cccnc1)c1ccc2c(c1)N(Cc1ccccc1)CCS2,–,inactive: -24.1%
CN(Cc1ccco1)C(=O)Cn1cc(S(=O)(=O)N2CCCC2)c(S(=O)(=O)N2CCCC2)c1,–,inactive: -6.87%
COc1ccc(NC(=O)CSc2nnc(-c3cccs3)n2C)cc1OC,–,inactive: -3.82%
Cc1nc(NC(=O)c2ccc(F)cc2)nc2cc3c(cc12)OCO3,"inconclusive: 35.5 µM [inhibitor, single point]",–
CCc1ccc2nc3nc(C)cc(C)c3c(N)c2c1,active: 12.6 µM,–
Cc1nn(Cc2ccccc2)c(C)c1C(=O)Nc1ccc(N2CCOCC2)cc1,"inconclusive: 35.5 µM [inhibitor, single point]",–
CCOC(=O)C(=NC(C)(C)C)NNc1cc(Cl)ccc1Cl,–,inactive: -6.09%
Cc1ccc(C(=O)Nc2nc(=O)n(C)s2)cc1,"inconclusive: 0.282 µM [inhibitor, partial curve, poor fit]",–
COC(=O)c1cc(Br)c(=O)n(CCN2CCCC2)c1,–,inactive: 25.4%
COc1ccc2oc(=O)c(-c3csc(Nc4ccc(O)cc4)n3)cc2c1,"inconclusive: 35.5 µM [inhibitor, single point]",–
O=C(NCc1ccccc1)c1cnc(Cl)c(Cl)c1,"inconclusive: 14.1 µM [inhibitor, single point]",–
O=C(CO/N=C/c1ccc(Cl)cc1Cl)NNC(=O)c1ccc(Cl)cc1Cl,"inconclusive: 10 µM [inhibitor, single point]",–
CN(Cc1ccccc1)C(=O)CN1CCN(C(c2ccccc2)c2ccccc2)CC1,"inconclusive: 20 µM [inhibitor, partial curve, poor fit]",–
O=[N+]([O-])c1cc(C(F)(F)F)cc([N+](=O)[O-])c1NCc1cccnc1,"inconclusive: 15.8 µM [inhibitor, single point]",–
Cc1ccc(CNC(=O)C2CCN(S(=O)(=O)c3cc(-c4noc(C)n4)ccc3C)CC2)cc1,"inconclusive: 2.51 µM [inhibitor, partial curve, poor fit]",–
Cc1cn([C@H]2C[C@H](O)[C@@H](CCC(=O)NCc3ccco3)O2)c(=O)[nH]c1=O,"inconclusive: 15.8 µM [inhibitor, single point]",–
Cc1nc2c(-c3ccccc3)c(C)nn2c(C)c1CCC(=O)NCc1ccc(F)cc1,"inconclusive: 5.62 µM [inhibitor, single point]",–
CCOC(=O)c1ccc(NC(=S)Nc2ccc(C)cc2)cc1,–,inactive: -18.9%
COc1ccc(-c2cn3c(n2)sc2cc(C(=O)Nc4cccc(OC)c4)ccc23)cc1,"inconclusive: 35.5 µM [inhibitor, single point]",–
O=C(NC1CC2CCC(C1)N2Cc1ccccc1)c1cccc(F)c1 (stereo not drawn),"inconclusive: 10 µM [inhibitor, partial curve]",–
CCOC(=O)[C@@H]1[C@H]2COc3ccccc3[C@@H]2N2C(=O)N(c3ccc(Br)cc3)C(=O)[C@@]12C,–,inactive: -8.74%
